Measurements: the supplement of paper PMC6089552
Screen size: about 3,200 compounds; about 300 (9.4%) showed activity. This is a selection; strong and weak results do not stand in their true shares.

Test system: A673/TR/shEF
Test: cell viability (LOESS-normalised, relative to median of negative controls) (log2 ratio); higher = more viable cells (less compound effect), active = hit call of the paper (over 3 MAD below the median)
Conditions: treatment time: 72 h
Procedure, shortened: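 Viability of A673/TR/shEF Ewing sarcoma cells was determined by CellTiter-Glo luminescence. The cells, at 1,500 per well in 384-well plates, were grown with or without doxycycline from 24 h before compound addition to switch on EWS-FLI1 shRNA knockdown, then exposed for three days to library compounds at two or more concentrations or to DMSO controls. Signals were LOESS-corrected plate by plate, normalised to the negative-control median and log2-transformed.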

[1] = 0.025 µM, library screen: screen2, EWS-FLI1 expression: high (no doxycycline)
[2] = 0.025 µM, library screen: screen2, EWS-FLI1 expression: low (doxycycline-induced shRNA knockdown)
[3] = 0.103 µM, library screen: screen3, EWS-FLI1 expression: high (no doxycycline)
[4] = 0.103 µM, library screen: screen3, EWS-FLI1 expression: low (doxycycline-induced shRNA knockdown)
[5] = 0.25 µM, library screen: screen1, EWS-FLI1 expression: high (no doxycycline)
[6] = 0.25 µM, library screen: screen1, EWS-FLI1 expression: low (doxycycline-induced shRNA knockdown)
[7] = 0.25 µM, library screen: screen2, EWS-FLI1 expression: high (no doxycycline)
[8] = 0.25 µM, library screen: screen2, EWS-FLI1 expression: low (doxycycline-induced shRNA knockdown)
[9] = 0.308 µM, library screen: screen3, EWS-FLI1 expression: high (no doxycycline)
[10] = 0.308 µM, library screen: screen3, EWS-FLI1 expression: low (doxycycline-induced shRNA knockdown)
[11] = 0.926 µM, library screen: screen3, EWS-FLI1 expression: high (no doxycycline)
[12] = 0.926 µM, library screen: screen3, EWS-FLI1 expression: low (doxycycline-induced shRNA knockdown)
[13] = 2.5 µM, library screen: screen1, EWS-FLI1 expression: high (no doxycycline)
[14] = 2.5 µM, library screen: screen1, EWS-FLI1 expression: low (doxycycline-induced shRNA knockdown)
[15] = 2.5 µM, library screen: screen2, EWS-FLI1 expression: high (no doxycycline)
[16] = 2.5 µM, library screen: screen2, EWS-FLI1 expression: low (doxycycline-induced shRNA knockdown)
[17] = 2.8 µM, library screen: screen3, EWS-FLI1 expression: high (no doxycycline)
[18] = 2.8 µM, library screen: screen3, EWS-FLI1 expression: low (doxycycline-induced shRNA knockdown)
[19] = 8.3 µM, library screen: screen3, EWS-FLI1 expression: high (no doxycycline)
[20] = 8.3 µM, library screen: screen3, EWS-FLI1 expression: low (doxycycline-induced shRNA knockdown)
[21] = 25 µM, library screen: screen2, EWS-FLI1 expression: high (no doxycycline)
[22] = 25 µM, library screen: screen2, EWS-FLI1 expression: low (doxycycline-induced shRNA knockdown)
[23] = 25 µM, library screen: screen3, EWS-FLI1 expression: high (no doxycycline)
[24] = 25 µM, library screen: screen3, EWS-FLI1 expression: low (doxycycline-induced shRNA knockdown)

Measured: cell viability (log2)

NC(=O)N/N=C/c1ccc([N+](=O)[O-])o1
inactive: [1] 0.075 | [2] 0.0664 | [3] 0.141 | [4] 0.0585 | [5] 0.0953 | [6] 0.12 | [7] 0.0618 | [8] -0.052 | [9] 0.134 | [10] 0.117 | [11] 0.0886 | [12] 0.0795 | [13] 0.106 | [14] 0.0319 | [15] 0.0249 | [16] 0.0684 | [17] 0.0952 | [18] 0.129 | [19] 0.0158 | [20] 0.076 | [21] 0.045 | [22] 0.0181 | [23] 0.083 | [24] 0.125

CN(C)C(=N)N=C(N)N
inactive: [3] 0.118 | [4] 0.00549 | [9] 0.0861 | [10] 0.0658 | [11] 0.0857 | [12] 0.0788 | [17] 0.119 | [18] 0.0653 | [19] 0.0621 | [20] 0.0611 | [23] 0.141 | [24] 0.0761

CO[C@@H]1[C@@H](OC(N)=O)[C@@H](O)[C@H](Oc2ccc3c(O)c(NC(=O)c4ccc(O)c(CC=C(C)C)c4)c(=O)oc3c2C)OC1(C)C
inactive: [3] 0.113 | [4] 0.068 | [5] -0.0218 | [6] 0.0415 | [9] 0.0747 | [10] 0.112 | [11] 0.0507 | [12] 0.0892 | [13] 0.0375 | [14] 0.0732 | [17] 0.0897 | [18] 0.00635 | [19] 0.0955 | [20] 0.0615 | [23] 0.0736 | [24] 0.0942

O=C(NCO)c1cccnc1
inactive: [6] 0.147 | [13] 0.255 | [14] 0.103
0.28: [5]

CC(=O)Oc1cccc(O)c1
inactive: [5] 0.0986 | [6] 0.0479 | [13] 0.156 | [14] 0.0119

CCCc1c(OCCCCc2nn[nH]n2)ccc(C(C)=O)c1O
inactive: [7] 0.127 | [8] 0.0514 | [15] 0.136 | [16] 0.105

CCN1CCN(C(=O)N[C@@H](C(=O)N[C@@H]2C(=O)N3[C@@H]2SC(C)(C)[C@@H]3C(=O)O)c2ccccc2)C(=O)C1=O
inactive: [5] 0.0771 | [6] 0.092 | [13] 0.127 | [14] 0.201

O=C(NCCNCC(O)COc1ccc(O)cc1)N1CCOCC1 (stereo not given)
inactive: [7] 0.0856 | [8] 0.053 | [15] 0.142 | [16] 0.0802

N=C(N)c1ccccc1
inactive: [7] 0.23 | [8] 0.0869 | [15] 0.101 | [16] 0.0194

CCN(Cc1ccncc1)C(=O)C(CO)c1ccccc1 (stereo not given)
inactive: [5] 0.0354 | [6] 0.149 | [7] 0.141 | [8] 0.023 | [13] 0.143 | [14] 0.156 | [15] 0.0981 | [16] 0.0285

Nc1nc(SCc2ccc([N+](=O)[O-])cc2)c2ncn([C@@H]3O[C@H](CO)[C@@H](O)[C@H]3O)c2n1
inactive: [7] -0.00724 | [8] 0.0269 | [15] 0.0689 | [16] 0.142

Cc1ncc([N+](=O)[O-])n1CCO
inactive: [1] 0.269 | [2] 0.102 | [5] 0.123 | [6] 0.0483 | [7] 0.132 | [8] 0.0608 | [13] 0.12 | [14] 0.00143 | [15] 0.175 | [16] 0.0782 | [21] 0.172 | [22] 0.0117

CCN(CC)CC#CCOC(=O)C(O)(c1ccccc1)C1CCCCC1 (stereo not given)
inactive: [3] 0.058 | [4] 0.000396 | [7] 0.11 | [8] 0.0848 | [9] 0.0689 | [10] 0.0837 | [11] 0.148 | [12] 0.0972 | [15] 0.0598 | [16] 0.127 | [17] 0.105 | [18] 0.105 | [19] 0.036 | [20] 0.0662 | [23] 0.137 | [24] 0.104

CN1C2CCCC1CC(NC(=O)c1nn(C)c3ccccc13)C2 (stereo not given)
inactive: [3] 0.0702 | [4] 0.114 | [9] 0.0358 | [10] 0.102 | [11] 0.0683 | [12] 0.0425 | [17] 0.0868 | [18] 0.0504 | [19] 0.0863 | [20] 0.0448 | [23] 0.093 | [24] 0.0119

CC(=O)Oc1cc(OC(C)=O)c2c(c1)OC(c1ccc(OC(C)=O)c(OC(C)=O)c1)C(OC(C)=O)C2 (stereo not given)
inactive: [5] 0.1 | [6] 0.0336 | [13] 0.18 | [14] 0.104

C[N+]1(C)C2CC(OC(=O)C(O)(c3cccs3)c3cccs3)CC1C1OC12 (stereo not given)
inactive: [3] 0.0262 | [4] 0.0758 | [9] 0.0294 | [10] 0.0213 | [11] -0.023 | [12] 0.0295 | [17] 0.0205 | [18] 0.0567 | [19] 0.0784 | [20] 0.0507 | [23] 0.1 | [24] 0.116

NC[C@H]1O[C@H](O[C@H]2[C@H](O[C@@H]3O[C@H](CO)[C@@H](O)[C@H]3O)[C@@H](O)[C@H](N)C[C@@H]2N)[C@H](N)[C@@H](O)[C@@H]1O
inactive: [5] 0.051 | [6] 0.0364 | [13] 0.0972 | [14] 0.0515

COc1ccc2[nH]cc(CCNC(C)=O)c2c1
inactive: [5] 0.11 | [6] 0.114 | [7] 0.198 | [8] 0.0987 | [13] 0.194 | [14] 0.0654 | [15] 0.157 | [16] 0.0646

C[C@@H]1CC[C@@]2(OC1)O[C@H]1C[C@H]3[C@@H]4CC[C@H]5C[C@@H](O)CC[C@]5(C)[C@H]4C[C@@H](O)[C@]3(C)[C@H]1[C@@H]2C
inactive: [5] 0.0822 | [6] 0.0668 | [13] 0.111 | [14] 0.136
